# According to the supplement of paper PMC8728848:
# The list shows a part of the results.
# B1: HHL-1 (Homo sapiens), P07306 (protein)
# chain: TKEYQDLQHLDNEESDHHQLRKGPPPPQPLLQRLCSGPRLLLLSLGLSLLLLVVVCVIGSQNSQLQEELRGLRETFSNFTASTEAQVKGLSTQGGNVGRKMKSLESQLEKQQKDLSEDHSSLLLHVKQFVSDLRSLSCQMAALQGNGSERTCCPVNWVEHERSCYWFSRSGKAWADADNYCRLEDAHLVVVTSWEEQKFVQHHIGPVNTWMGLHDQNGPWKWVDGTDYETGFKNWRPEQPDDWYGHGLGGGEDCAHFTDDGRWNDDVCQRPYRWVCETELDKASQEPPLL
# Legend:
# Experiment in all cases: glycan array binding signal (z-score within array); higher = stronger binding
# Conditions in all cases: glycan notation: IUPAC condensed, linker removed
# [1] = target: Neu5Ac(a2-3)Gal(b1-4)[Fuc(a1-3)]GlcNAc
# How it was run: (§1)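 Glycan array data came from 3228 arrays in the Consortium for Functional Glycomics database, and only arrays with an available protein sequence were kept. Glycan names were put into IUPAC-condensed notation, and columns mapping to the same glycan were averaged. The binding signal is a within-array Z-score, averaged across arrays of one protein sequence run at different concentrations or buffers and across linkers. A negative Z-score can be read as non-binding.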
# [2] = target: Neu5Ac(a2-3)Gal(b1-4)[Fuc(a1-3)]GlcNAc(b1-3)Gal
# How it was run: as §1
# [3] = target: Neu5Ac(a2-3)Gal(b1-4)[Fuc(a1-3)]GlcNAc(b1-3)Gal(b1-4)GlcNAc
# How it was run: as §1
# [4] = target: Neu5Ac(a2-3)Gal(b1-4)[Fuc(a1-3)]GlcNAc(b1-3)Gal(b1-4)[Fuc(a1-3)]GlcNAc(b1-3)Gal(b1-4)[Fuc(a1-3)]GlcNAc
# How it was run: as §1
# [5] = target: Neu5Ac(a2-3)Gal(b1-4)[Fuc(a1-3)]GlcNAc(b1-6)[Gal(b1-3)]GalNAc
# How it was run: as §1
# [6] = target: Neu5Ac(a2-3)Gal(b1-4)[Fuc(a1-3)]GlcNAc(b1-6)[Neu5Ac(a2-3)Gal(b1-3)]GalNAc
# How it was run: as §1
# [7] = target: Neu5Ac(a2-3)Gal(b1-4)[Fuc(a1-3)]GlcNAc6S
# How it was run: as §1
# [8] = target: Neu5Ac(a2-3)Gal6S(b1-4)GlcNAc
# How it was run: as §1
# [9] = target: Neu5Ac(a2-3)Gal6S(b1-4)[Fuc(a1-3)]GlcNAc
# How it was run: as §1
# [10] = target: Neu5Ac(a2-3)GalNAc
# How it was run: as §1
# [11] = target: Neu5Ac(a2-3)GalNAc(b1-4)GlcNAc
# How it was run: as §1
# [12] = target: Neu5Ac(a2-3)[GalNAc(b1-4)]Gal(b1-4)Glc
# How it was run: as §1
# [13] = target: Neu5Ac(a2-3)[GalNAc(b1-4)]Gal(b1-4)GlcNAc
# How it was run: as §1
# [14] = target: Neu5Ac(a2-3)[Neu5Ac(a2-6)]GalNAc
# How it was run: as §1
# [15] = target: Neu5Ac(a2-6)Gal
# How it was run: as §1
# [16] = target: Neu5Ac(a2-6)Gal(b1-4)Glc
# How it was run: as §1
# [17] = target: Neu5Ac(a2-6)Gal(b1-4)GlcNAc
# How it was run: as §1
# [18] = target: Neu5Ac(a2-6)Gal(b1-4)GlcNAc(b1-2)Man(a1-3)Man(b1-4)GlcNAc(b1-4)GlcNAc
# How it was run: as §1
# [19] = target: Neu5Ac(a2-6)Gal(b1-4)GlcNAc(b1-2)Man(a1-3)[Gal(b1-4)GlcNAc(b1-2)Man(a1-6)]Man(b1-4)GlcNAc(b1-4)GlcNAc
# How it was run: as §1
# [20] = target: Neu5Ac(a2-6)Gal(b1-4)GlcNAc(b1-2)Man(a1-3)[GlcNAc(b1-2)Man(a1-6)]Man(b1-4)GlcNAc(b1-4)GlcNAc
# How it was run: as §1
# [21] = target: Neu5Ac(a2-6)Gal(b1-4)GlcNAc(b1-2)Man(a1-3)[GlcNAc(b1-2)Man(b1-4)GlcNAc(b1-2)Man(a1-6)]Man(b1-4)GlcNAc(b1-4)GlcNAc
# How it was run: as §1
# [22] = target: Neu5Ac(a2-6)Gal(b1-4)GlcNAc(b1-2)Man(a1-3)[Man(a1-6)]Man(b1-4)GlcNAc(b1-4)GlcNAc
# How it was run: as §1
# [23] = target: Neu5Ac(a2-6)Gal(b1-4)GlcNAc(b1-2)Man(a1-3)[Neu5Ac(a2-6)Gal(b1-4)GlcNAc(b1-2)Man(a1-6)]Man(b1-4)GlcNAc(b1-4)GlcNAc
# How it was run: as §1
# [24] = target: Neu5Ac(a2-6)Gal(b1-4)GlcNAc(b1-2)Man(a1-6)Man(b1-4)GlcNAc(b1-4)GlcNAc
# How it was run: as §1
# [25] = target: Neu5Ac(a2-6)Gal(b1-4)GlcNAc(b1-2)Man(a1-6)[Gal(b1-4)GlcNAc(b1-2)Man(a1-3)]Man(b1-4)GlcNAc(b1-4)GlcNAc
# How it was run: as §1
# [26] = target: Neu5Ac(a2-6)Gal(b1-4)GlcNAc(b1-2)Man(a1-6)[GlcNAc(b1-2)Man(a1-3)]Man(b1-4)GlcNAc(b1-4)GlcNAc
# How it was run: as §1
# [27] = target: Neu5Ac(a2-6)Gal(b1-4)GlcNAc(b1-2)Man(a1-6)[Man(a1-3)]Man(b1-4)GlcNAc(b1-4)GlcNAc
# How it was run: as §1
# [28] = target: Neu5Ac(a2-6)Gal(b1-4)GlcNAc(b1-3)Gal(b1-3)GlcNAc
# How it was run: as §1
# [29] = target: Neu5Ac(a2-6)Gal(b1-4)GlcNAc(b1-3)Gal(b1-4)GlcNAc
# How it was run: as §1
# [30] = target: Neu5Ac(a2-6)Gal(b1-4)GlcNAc(b1-3)Gal(b1-4)GlcNAc(b1-3)Gal(b1-4)GlcNAc
# How it was run: as §1
# [31] = target: Neu5Ac(a2-6)Gal(b1-4)GlcNAc(b1-3)Gal(b1-4)[Fuc(a1-3)]GlcNAc(b1-3)Gal(b1-4)[Fuc(a1-3)]GlcNAc
# How it was run: as §1
# [32] = target: Neu5Ac(a2-6)Gal(b1-4)GlcNAc(b1-3)GalNAc
# How it was run: as §1
# [33] = target: Neu5Ac(a2-6)Gal(b1-4)GlcNAc6S
# How it was run: as §1
# [34] = target: Neu5Ac(a2-6)GalNAc
# How it was run: as §1
# [35] = target: Neu5Ac(a2-6)GalNAc(b1-4)GlcNAc
# How it was run: as §1
# [36] = target: Neu5Ac(a2-6)GlcNAc(b1-4)GlcNAc
# How it was run: as §1
# [37] = target: Neu5Ac(a2-6)GlcNAc(b1-4)GlcNAc(b1-4)GlcNAc
# How it was run: as §1
# [38] = target: Neu5Ac(a2-8)Neu5Ac
# How it was run: as §1
# [39] = target: Neu5Ac(a2-8)Neu5Ac(a2-3)Gal(b1-4)Glc
# How it was run: as §1
# [40] = target: Neu5Ac(a2-8)Neu5Ac(a2-3)[GalNAc(b1-4)]Gal(b1-4)Glc
# How it was run: as §1
# [41] = target: Neu5Ac(a2-8)Neu5Ac(a2-8)Neu5Ac
# How it was run: as §1
# [42] = target: Neu5Ac(a2-8)Neu5Ac(a2-8)Neu5Ac(a2-3)Gal(b1-4)Glc
# How it was run: as §1
# [43] = target: Neu5Ac(a2-8)Neu5Ac(a2-8)Neu5Ac(a2-3)[GalNAc(b1-4)]Gal(b1-4)Glc
# How it was run: as §1
# [44] = target: Neu5Ac(a2-8)Neu5Ac(a2-8)Neu5Ac(a2-8)Neu5Ac(a2-3)[GalNAc(b1-4)]Gal(b1-4)Glc
# How it was run: as §1
# [45] = target: Neu5Ac(b2-6)Gal(b1-4)GlcNAc
# How it was run: as §1
# [46] = target: Neu5Ac(b2-6)GalNAc
# How it was run: as §1
# [47] = target: Neu5Ac9Ac(a2-3)Gal(b1-3)GlcNAc
# How it was run: as §1
# [48] = target: Neu5Ac9Ac(a2-3)Gal(b1-4)GlcNAc
# How it was run: as §1
# [49] = target: Neu5Ac9Ac(a2-6)Gal(b1-4)GlcNAc
# How it was run: as §1
# [50] = target: Neu5Gc(a2-3)Gal(b1-3)GlcNAc
# How it was run: as §1
# [51] = target: Neu5Gc(a2-3)Gal(b1-3)[Fuc(a1-4)]GlcNAc
# How it was run: as §1
# [52] = target: Neu5Gc(a2-3)Gal(b1-4)Glc
# How it was run: as §1
# [53] = target: Neu5Gc(a2-3)Gal(b1-4)GlcNAc
# How it was run: as §1
# [54] = target: Neu5Gc(a2-3)Gal(b1-4)[Fuc(a1-3)]GlcNAc
# How it was run: as §1
# [55] = target: Neu5Gc(a2-6)Gal(b1-4)GlcNAc
# How it was run: as §1
# [56] = target: Neu5Gc(a2-6)GalNAc
# How it was run: as §1
# [57] = target: Neu5Gc(b2-6)Gal(b1-4)GlcNAc
# How it was run: as §1
binder,measurement,setting,value
B1,glycan array binding signal (z-score),[1],-0.528
same,glycan array binding signal (z-score),[2],-0.143
same,glycan array binding signal (z-score),[3],-0.468
same,glycan array binding signal (z-score),[4],-0.469
same,glycan array binding signal (z-score),[5],-0.329
same,glycan array binding signal (z-score),[6],-0.569
same,glycan array binding signal (z-score),[7],-0.489
same,glycan array binding signal (z-score),[8],-0.558
same,glycan array binding signal (z-score),[9],-0.533
same,glycan array binding signal (z-score),[10],-0.482
same,glycan array binding signal (z-score),[11],0.978
same,glycan array binding signal (z-score),[12],0.352
same,glycan array binding signal (z-score),[13],-0.188
same,glycan array binding signal (z-score),[14],0.133
same,glycan array binding signal (z-score),[15],0.61
same,glycan array binding signal (z-score),[16],-0.274
same,glycan array binding signal (z-score),[17],-0.307
same,glycan array binding signal (z-score),[18],-0.335
same,glycan array binding signal (z-score),[19],1.69
same,glycan array binding signal (z-score),[20],-0.086
same,glycan array binding signal (z-score),[21],-0.344
same,glycan array binding signal (z-score),[22],0.807
same,glycan array binding signal (z-score),[23],-0.114
same,glycan array binding signal (z-score),[24],-0.341
same,glycan array binding signal (z-score),[25],-0.419
same,glycan array binding signal (z-score),[26],0.241
same,glycan array binding signal (z-score),[27],-0.283
same,glycan array binding signal (z-score),[28],0.296
same,glycan array binding signal (z-score),[29],-0.544
same,glycan array binding signal (z-score),[30],0.954
same,glycan array binding signal (z-score),[31],0.266
same,glycan array binding signal (z-score),[32],0.333
same,glycan array binding signal (z-score),[33],-0.346
same,glycan array binding signal (z-score),[34],-0.568
same,glycan array binding signal (z-score),[35],-0.517
same,glycan array binding signal (z-score),[36],0.387
same,glycan array binding signal (z-score),[37],-0.495
same,glycan array binding signal (z-score),[38],-0.455
same,glycan array binding signal (z-score),[39],-0.431
same,glycan array binding signal (z-score),[40],-0.16
same,glycan array binding signal (z-score),[41],-0.202
same,glycan array binding signal (z-score),[42],-0.038
same,glycan array binding signal (z-score),[43],-0.164
same,glycan array binding signal (z-score),[44],2.28
same,glycan array binding signal (z-score),[45],-0.409
same,glycan array binding signal (z-score),[46],-0.515
same,glycan array binding signal (z-score),[47],-0.561
same,glycan array binding signal (z-score),[48],0.603
same,glycan array binding signal (z-score),[49],-0.319
same,glycan array binding signal (z-score),[50],-0.431
same,glycan array binding signal (z-score),[51],0.046
same,glycan array binding signal (z-score),[52],0.177
same,glycan array binding signal (z-score),[53],-0.534
same,glycan array binding signal (z-score),[54],0.159
same,glycan array binding signal (z-score),[55],0.777
same,glycan array binding signal (z-score),[56],-0.536
same,glycan array binding signal (z-score),[57],-0.537
